# Several values for one entry are separate records, joined by “and”; a condition that tells them apart may be missing. Identical values can stand only once. Screen size: about 220,000 compounds; about 16,000 (7.3%) were called active. Inconclusive means that the source gave no clear call. Such entries were picked first, then a sample of the others. Calls come from the whole dose curve; as a rule, active = well fitted inhibition curve with a large enough effect (not every such curve was filed as active); inconclusive = small, poorly fitted or top-dose-only effect, or another doubt; inactive = no such curve, though single readings can be large or run the other way. Potencies of inconclusive entries are doubtful fits and often do not repeat.
# Biological target: Aldehyde dehydrogenase 1A1 (Homo sapiens) (UniProt P00352)
# Chain of UniProt P00352 (P00352 whole entry, looked up): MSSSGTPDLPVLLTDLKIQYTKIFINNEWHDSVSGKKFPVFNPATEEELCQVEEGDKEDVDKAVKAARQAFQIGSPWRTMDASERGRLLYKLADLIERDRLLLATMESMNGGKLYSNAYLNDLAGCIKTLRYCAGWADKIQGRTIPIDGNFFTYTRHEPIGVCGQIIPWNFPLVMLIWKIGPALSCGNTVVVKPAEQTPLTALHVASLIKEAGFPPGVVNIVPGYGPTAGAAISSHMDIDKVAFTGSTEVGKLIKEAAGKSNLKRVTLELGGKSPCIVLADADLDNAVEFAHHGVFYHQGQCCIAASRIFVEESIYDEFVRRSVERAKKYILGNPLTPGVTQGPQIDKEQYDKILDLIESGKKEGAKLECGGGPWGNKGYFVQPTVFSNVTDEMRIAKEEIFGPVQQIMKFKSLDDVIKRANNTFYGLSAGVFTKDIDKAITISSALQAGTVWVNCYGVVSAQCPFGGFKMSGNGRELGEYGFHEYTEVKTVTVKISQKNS
# Assay: qHTS Assay for Inhibitors of Aldehyde Dehydrogenase 1 (ALDH1A1);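 for activity, negative = inhibition: plate controls were no enzyme wells and a reference inhibitor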
# Conditions: Purified ALDH1A1, NADH fluorescence, propionaldehyde substrate; series mostly up to 75.3 µM; activity, negative = inhibition: at the top concentration
# Potency is the fitted concentration of half-maximal effect; tags give direction and shape of the fitted curve.
SMILES,Potency,"activity, negative = inhibition"
COc1ccc(-c2nc(CS(=O)CC(=O)N3CCC4(CC3)OCCO4)c(C)o2)cc1 (configuration not stated),"inconclusive: 39.8 µM [inhibitor, single point]",–
COc1ccc(CN2CCN(c3ccccc3F)CC2)cc1O,"inconclusive: 39.8 µM [inhibitor, single point]",–
CNCCc1ccc(O)c(O)c1,"inconclusive: 28.2 µM [inhibitor, partial curve]",–
CC[C@@H]1/C=C/C=C/C[C@H](C)[C@@H](O)[C@](C)(O)C(=O)[C@H](C)[C@@H](O)[C@H](C)C(=O)[C@H](C)[C@@H](O)[C@H](C)/C=C/C(=O)O[C@H]2[C@@H](C)[C@@H](CC1)O[C@@]1(CC[C@@H](C)[C@@H](C[C@H](C)O)O1)[C@@H]2C,"inconclusive: 20 µM [inhibitor, partial curve]",–
CCOC(=O)c1c(/N=C/c2c(O)n(-c3ccccc3F)c(=S)[nH]c2=O)sc2c1CCCC2,active: 1.26 µM,–
CC(C)(C)C(O)(CCc1ccc(Cl)cc1)Cn1cncn1 (configuration not stated),"inconclusive: 37.7 µM [inhibitor, single point]",–
C[C@H]1CCC/C=C/C2C[C@H](O)CC2[C@H](O)/C=C/C(=O)O1 (some centres not stated),–,inactive: -0.094%
ClC1=C(Cl)C2(Cl)C3C(Cl)C(Cl)CC3C1(Cl)C2(Cl)Cl (configuration not stated),–,inactive: -16.4%
O=C(CN1CCCC1=O)NCCc1ccccc1,–,inactive: 4.93%
CCOC(=O)c1ccc(N2C(=O)CC(N3CCC(O)(c4ccc(Cl)cc4)CC3)C2=O)cc1 (configuration not stated),active: 7.94 µM,–
CC(=O)C1=C(O)C2C3c4c[nH]c5cccc(c45)CC3C(C)(C)N2C1=O (configuration not stated),–,inactive: -3.17%
CCCCN1C(=O)C(C2c3ccccc3C(=O)N2Cc2ccccc2)C(=O)NC1=S (configuration not stated),"inconclusive: 35.5 µM [inhibitor, single point]",–
CCN(CCCNS(=O)(=O)c1ccc2c(c1)oc(=O)n2C)c1cccc(C)c1,"inconclusive: 28.2 µM [inhibitor, partial curve]",–
CCOC(=O)c1c(-c2ccc(OC)cc2)oc2ccc(OC(=O)N(C)C)cc12,"inconclusive: 31.6 µM [inhibitor, partial curve]",–
N#CC(C#N)=Cc1ccc(-c2ccccc2F)o1,active: 8.91 µM,–
c1cc2c(cc1CCNC1C3CC4CC(C3)CC1C4)OCO2 (configuration not stated),"inconclusive: 44.7 µM [inhibitor, single point]",–
O=C1NC(=O)N(CCNc2ncc(C(F)(F)F)cc2Cl)C(=O)C1Cc1ccc(Cl)cc1 (configuration not stated),"inconclusive: 39.8 µM [inhibitor, single point]",–
CCC12C=CCN3CCC4(c5ccc(OC)cc5N(C)C4[C@@](O)(C(=O)OC)C1OC(C)=O)C32 (some centres not stated),–,inactive: -4.75%
O=C1/C(=C\c2ccc([N+](=O)[O-])cc2)N2CCC1CC2,"inconclusive: 14.1 µM [inhibitor, partial curve]",–
CCOC(=O)[C@@]1(C#N)[C@@H]2C=CC(C(N)=O)=CN2[C@@H](C(N)=O)[C@@H]1c1cccc(Cl)c1,"inconclusive: 39.8 µM [inhibitor, single point]",–
Cn1cc(C(=O)N2CCC3(CC2)OCCO3)c2c3ccccc3n(C)c2c1=O,"inconclusive: 25.1 µM [inhibitor, partial curve]",–
O=C(NCC(c1cccnc1)N1CCN(c2ccccc2F)CC1)Oc1ccccc1 (configuration not stated),"inconclusive: 37.7 µM [inhibitor, single point]",–
CC1CN(O)C2CCc3nonc3C12O (configuration not stated),"inconclusive: 39.8 µM [inhibitor, single point]",–

SMILES,Potency,"activity, negative = inhibition"
CN1CCN(Cc2ccccc2Sc2ccccc2)CC1,–,inactive: 6.28%
Cc1ccc(Cn2nnnc2CN2CCC(n3nnc4cc(C(F)(F)F)ccc43)CC2)cc1,"inconclusive: 22.4 µM [inhibitor, single point]",–
CCn1c(P(C)(=O)O)nc2cc(NC(=O)c3ccccc3F)ccc21,"inconclusive: 39.8 µM [inhibitor, single point]",–
Cc1ccc2c(c1)C1CN(C)CCC1N2C(=O)c1ccco1 (configuration not stated),"inconclusive: 39.8 µM [inhibitor, single point]",–
CCC(C)NC(=O)c1c(N)n(Cc2ccc3c(c2)OCO3)c2nc3ccccc3nc12 (configuration not stated),"inconclusive: 35.5 µM [inhibitor, partial curve]",–
CN(C)C(Cc1ccc(C#N)cc1)C(=O)c1ccccc1 (configuration not stated),"inconclusive: 39.8 µM [inhibitor, single point]",–
CC(C)OCCCNC(=O)c1c(N)n(CC2CCCO2)c2nc3ccccc3nc12 (configuration not stated),"inconclusive: 28.2 µM [inhibitor, partial curve]",–
Fc1ccc(CN2CCN(c3ccc(Cl)cc3)CC2)cc1,–,inactive: 13.6%
O=C(O)Cc1cccnc1C(=O)O,inactive,–
CCC(C)N1C(=O)NC(=O)C2(Cc3cc(C)ccc3N(C)C2)C1=O (configuration not stated),"inconclusive: 28.2 µM [inhibitor, single point]",–
CN1CCc2nc3sc(C(=O)NC4CC4)c(N)c3cc2C1,"inconclusive: 6.31 µM [inhibitor, single point]",–
C=CCN1C(=O)NC(=O)C(Cc2ccc(OC)c(OC)c2)C1=O (configuration not stated),active: 25.1 µM,–
O=Cc1cn(Cc2cccc([N+](=O)[O-])c2)c2ccccc12,active: 3.98 µM,–
CCC(=NCCc1c[nH]c2ccccc12)c1c(O)n(-c2ccc(C)cc2)c(=O)[nH]c1=O,"inconclusive: 39.8 µM [inhibitor, single point]",–
O=[N+]([O-])c1cc(O)c(O)c([N+](=O)[O-])c1,"inconclusive: 15.8 µM [inhibitor, partial curve] and inconclusive: 31.6 µM [inhibitor, single point]",–
Cc1ccc(-c2cc(C(F)F)n3ncc(C(=O)N4CCC5(CC4)OCCO5)c3n2)cc1,"inconclusive: 20 µM [inhibitor, partial curve]",–
CCOc1ccc(N2C(=O)NC(=O)/C(=C\c3ccc(N4CCOCC4)cc3C)C2=O)cc1,"inconclusive: 25.1 µM [inhibitor, single point]",–
Cc1cc(N)n(C2CCN(C)CC2)n1,–,inactive: -3.5%
Cc1ccc(Cl)cc1N1CCN(CCN)CC1,active: 28.2 µM,–
O=[N+]([O-])c1ccc(Nc2ccccc2)cc1,–,inactive: 12.5%
O=C1NC(=O)N(Cc2ccco2)C(=O)/C1=C/c1ccc(-c2cccc([N+](=O)[O-])c2)o1,active: 7.08 µM,–
CO[C@H]1[C@H](O)[C@H](O[C@@H]2[C@H](Oc3cccc4c(O)c5c(=O)oc6ccc(C)c7c(=O)oc(c34)c5c67)O[C@@H](C)[C@H](O)[C@H]2O)O[C@@H](C)[C@@H]1O,–,inactive: -11.6% [at 13.5 µM]
O=C(c1ccccc1F)c1cn(Cc2ccccc2)c2ccccc12,–,inactive: -12.7%

SMILES,Potency,"activity, negative = inhibition"
CCCCn1c(-c2ccoc2C)n[nH]c1=S,"inconclusive: 35.5 µM [inhibitor, single point]",–
O=c1[nH]c(=O)n(C2CCCCC2)c(O)c1C=NCCCn1ccnc1,"inconclusive: 31.6 µM [inhibitor, single point]",–
C=CC(=O)OCCN(C)C,–,inactive: -2.49%
O=[N+]([O-])c1cccc(O)c1,"inconclusive: 39.8 µM [inhibitor, single point]",–
COc1cc(N2CCOCC2)ccc1/C=C1\C(=O)NC(=O)N(Cc2cccs2)C1=O,"inconclusive: 28.2 µM [inhibitor, single point]",–
N#CC1=C(N)Oc2c(c(=O)oc3ccccc23)C1c1ccc(OC(=O)N2CCOCC2)cc1 (configuration not stated),"inconclusive: 28.2 µM [inhibitor, partial curve]",–
Cc1ccccc1-n1c(C)nc2ccccc2c1=O,"inconclusive: 39.8 µM [inhibitor, single point]",–
COc1ccc(CN2C(=O)NC(=O)/C(=C/c3ccc([N+](=O)[O-])s3)C2=O)cc1,active: 3.98 µM,–
C[C@]12CC[C@@H](O)C[C@@H]1CC[C@@H]1[C@@H]2CC[C@]2(C)C=CC[C@@H]12,"inconclusive: 22.4 µM [inhibitor, partial curve]",–
CCN(CC)S(=O)(=O)c1ccc(NN=C(C#N)C#N)cc1,–,inactive: 2.29%
O=C(c1cc(F)ccc1F)C1CCCN(Cc2ccc3nonc3c2)C1 (configuration not stated),–,inactive: -14.6%
CCn1ccnc1CN1CCCC(C(=O)c2ccc(SC)cc2)C1 (configuration not stated),"inconclusive: 39.8 µM [inhibitor, single point]",–
CC1Oc2cc3c(-c4c(O)cc(O)c5c(O)c6c(cc45)OC(C)C(C)C6=O)c(O)cc(O)c3c(O)c2C(=O)C1C (configuration not stated),"inconclusive: 23.8 µM [inhibitor, single point]",–
CCS(=O)(=O)N1CCN(C2CCC(C)CC2)CC1 (configuration not stated),"inconclusive: 10 µM [inhibitor, partial curve]",–
Cc1[nH]n(-c2ccccc2)c(=O)c1C(c1ccc([N+](=O)[O-])cc1)c1c(C)[nH]n(-c2ccccc2)c1=O,active: 12.6 µM,–
Cc1cccc(N2CCc3c2nc2ccccc2c3N)c1,"inconclusive: 28.2 µM [inhibitor, partial curve] and inconclusive: 25.1 µM [inhibitor, partial curve]",–
O=c1[nH]c(=O)n(-c2ccccc2F)c(O)c1C=NCCC1=CCCCC1,"inconclusive: 22.4 µM [inhibitor, single point]",–
CC1=CC(=O)c2c(O)cccc2C1=O,active: 15.8 µM,–
CCOC(=O)CN1C(=O)C2(C(C#N)=C(N)Oc3ccccc32)C(C(=O)OC)=C1C (configuration not stated),active: 7.94 µM,–
CC(C)=CCOc1c2occc2cc2ccc(=O)oc12,"inconclusive: 28.2 µM [inhibitor, partial curve]",–
Cn1c(=O)c(Oc2ccc(F)cc2)c(O)c2ccccc21,"inconclusive: 37.7 µM [inhibitor, single point]",–

# — PubChem BioAssay AID1030 (National Center for Advancing Translational Sciences (NCATS), 2008)
